Several values for one entry are separate records, joined by “and”; a condition that tells them apart may be missing. Equal entries are not always repeated. Hit rate of the full screen: of about 420,000 compounds, about 50,000 (12%) were called active. Inconclusive means that the source gave no clear call. Such entries were picked first, then a sample of the others. The call rests on the fitted dose curve; in most records, active means well fitted inhibition curve with a large enough effect; inconclusive means small, poorly fitted or top-dose-only effect; inactive means flat fitted curve, though single readings scatter. Potencies of inconclusive entries are doubtful fits and often do not repeat.
Experiment: qHTS for Inhibitors of human tyrosyl-DNA phosphodiesterase 1 (TDP1): qHTS in cells in presence of CPT; further: nearly all actives have a fitted effect of over 55% in size
Conditions: chicken DT40 Tdp1-/-;hTDP1 cells + 20 nM CPT, ATP luminescence, 48 h; series mostly up to 46.2 µM
Outline: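 Chicken DT40 Tdp1-/- cells complemented with human TDP1, 400 cells/well, exposed to compounds plus 20 nM camptothecin for at least 48 h at 37 C; viability read as ATP content by CellTiter-Glo luminescence.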
In the case of `O=C(Nc1ccc(F)cc1)Nc1ccc2ccccc2n1`, the Potency is reported as inconclusive: 29.1 µM [inhibitor, single point].
For `O=C(CCOc1ccccc1F)N1CCN(c2ccccc2O)CC1`, the Potency was inconclusive: 18.4 µM [inhibitor, single point].
With `CCOc1ccc(CC(=O)Nc2cccc(-c3ccc4nnc(C)n4n3)c2)cc1` the Potency was inconclusive: 32.6 µM [inhibitor, partial curve, poor fit].
With `O=C(NC1CC(=O)N(c2ccc(F)cc2)C1)c1ccc(S(=O)(=O)N2CCOCC2)cc1` (configuration not stated) the Potency was “inactive”.
With `c1cc(-c2ccc3c(c2)CCO3)n2cnnc2c1` the Potency was “inactive”.
For `COc1ccc(NC(=O)Cn2c(=O)c3cccn3c3ccccc32)cc1`, the Potency was inconclusive: 14.6 µM [inhibitor, single point].
For `CN(C)C(CNC(=O)c1cc(S(=O)(=O)N(C)c2ccccc2)ccc1Cl)c1cccs1` (configuration not stated), the Potency was active: 5.8 µM.
For `O=C1Nc2cc(C(=O)N3CCN(c4ccc(F)cc4)CC3)ccc2NC1CSCc1cccc(F)c1` (configuration not stated), the Potency was inconclusive: 20.6 µM [inhibitor, single point].
With `Cn1c(=O)c2c(-c3ccccc3)n3c(c2n(C)c1=O)C(c1ccc([N+](=O)[O-])cc1)Nc1ccccc1-3` (configuration not stated) the Potency was active: 16.4 µM.
With `O=C1C=C(OCCF)CC(c2ccccc2C(F)(F)F)O1` (configuration not stated) the Potency was “inactive”.
In the case of `CCOc1ccc(C2OCCC(C)O2)cc1OC` (configuration not stated), the Potency is reported as “inactive”.
With `CC(=O)c1cccc(NC(=O)/C=C/c2ccc(S(=O)(=O)N3CCOCC3)cc2)c1` the Potency was inconclusive: 29.1 µM [inhibitor, single point].
In the case of `CCCn1c(C)cc(C(=O)COc2ccc(C)nc2[N+](=O)[O-])c1C`, the Potency is reported as inconclusive: 23.1 µM [inhibitor, single point].
With `COc1ccc2[nH]c(=O)c(CN(CCO)S(=O)(=O)c3ccc(C)cc3)cc2c1` the Potency was “inactive”.
For `COc1ccc(N2CCN(C(c3ccccc3OC)c3nnnn3C3CCCC3)CC2)cc1` (configuration not stated), the Potency was active: 23.1 µM.
In the case of `CCOCCCN1C(=O)CN(C2CCCCCC2)C(=O)C1c1ccc(OCC)c(OC)c1` (configuration not stated), the Potency is reported as “inactive”.
For `COc1ccc(OC)c(N/C=C/C(=C(C#N)C#N)N(C)C)c1`, the Potency was inconclusive: 23.1 µM [inhibitor, single point].
With `CN1CCN(NC(=O)c2ccc(COc3ccccc3Br)o2)CC1` the Potency was inconclusive: 29.1 µM [inhibitor, single point].
In the case of `Cc1nc2c(=O)n(C)c(=O)n(C)c2nc1Cl`, the Potency is reported as active: 0.58 µM.
In the case of `Cc1cc(C)c2c(=O)[nH]c(SCC(=O)Nc3cccc(S(=O)(=O)N(C)C)c3)nc2n1`, the Potency is reported as “inactive”.
With `N#Cc1ccc(C(=O)NCCCSc2ccccc2)cc1` the Potency was inconclusive: 16.4 µM [inhibitor, single point].
For `O=C(C1CC=CCC1)N1CCC(CO)(Cc2ccc(Cl)cc2)CC1` (configuration not stated), the Potency was inconclusive: 23.1 µM [inhibitor, single point].
In the case of `Clc1ccc(-c2nc3c4ccccc4ccn3c2Cc2ccccc2)cc1`, the Potency is reported as active: 16.4 µM.
With `Cc1ccc(-n2ncc3c(Nc4ccc5c(c4)OCCO5)ncnc32)cc1Cl` the Potency was inconclusive: 29.1 µM [inhibitor, single point].
With `CC(=O)Nc1cccc(-c2ccnc3c2CC(C(=O)NCc2ccc(N(C)C)cc2)O3)c1` (configuration not stated) the Potency was active: 13 µM.
In the case of `COC(C(=O)Nc1ccc(S(=O)(=O)Nc2ccc(F)cc2)cc1)c1ccccc1` (configuration not stated), the Potency is reported as inconclusive: 32.6 µM [inhibitor, single point].
With `CCOC(=O)c1[nH]c(C)c(CCC(=O)N2CCN(c3ccc(OC)cc3)CC2)c1C` the Potency was “inactive”.
In the case of `O=c1nc(-c2ccccc2)c2cc(Br)ccc2[nH]1`, the Potency is reported as active: 0.326 µM.
In the case of `COc1ccc(C(C)=O)cc1CSc1nnc(Nc2ccccc2)s1`, the Potency is reported as inconclusive: 29.1 µM [inhibitor, single point].
For `COc1ccc(-n2cc(-c3ccccc3)[nH]c2=S)c(OC)c1`, the Potency was active: 7.31 µM.
In the case of `CCOC(=O)c1c(C)[nH]c(C(=O)OCc2csc(CC(=O)Nc3ccccc3C)n2)c1C`, the Potency is reported as active: 16.4 µM.
For `CCOC(=O)C1CCN(C(=O)C2CCN(S(=O)(=O)c3c(C)noc3/C=C/c3ccc(C)cc3)CC2)CC1`, the Potency was inconclusive: 29.1 µM [inhibitor, single point].
In the case of `CCSc1nc(-c2ccccc2)nc2c1Cc1c(CO)cnc(C)c1O2`, the Potency is reported as “inactive”.
For `CCCSc1nc2sc3c(c2c(=O)[nH]1)CC(C)CC3` (configuration not stated), the Potency was inconclusive: 29.1 µM [inhibitor, single point].
For `COc1cc(OC)cc(C(=O)Nc2ccc3c(c2)CCCN3C(=O)c2cccs2)c1`, the Potency was active: 18.4 µM.
In the case of `CC(=O)NCC1CCCN(Cc2cn(-c3ccccc3)nc2-c2ccc3c(c2)OCO3)C1` (configuration not stated), the Potency is reported as inconclusive: 29.1 µM [inhibitor, single point].
With `O=C(CN(Cc1ccc(F)cc1)C(=O)CNS(=O)(=O)c1ccc(F)cc1)NCC1CCCO1` (configuration not stated) the Potency was “inactive”.
In the case of `O=C1OC2(c3ccccc31)c1cc(Br)c(O)c(Br)c1Oc1c2cc(Br)c(O)c1Br`, the Potency is reported as “inactive”.
With `CCCC1=Nc2cc(C(=O)NCc3ccccc3)ccc2Sc2ccccc21` the Potency was active: 4.11 µM.
In the case of `Cc1ccc(C(C)C)c(OCC(=O)Nc2ccc3c(c2)nc(CCNC(=O)c2ccco2)n3C)c1`, the Potency is reported as inconclusive: 5.17 µM [inhibitor, partial curve].
With `COc1ccc(NC(=O)c2cccc3c(=O)c4c([nH]c23)CCCC4)cc1` the Potency was inconclusive: 29.1 µM [inhibitor, single point].
For `C[C@@H]1CN([C@@H](C)CO)S(=O)(=O)c2ccc(-c3ccccc3)cc2O[C@@H]1CN(C)Cc1ccccc1C(=O)O`, the Potency was “inactive”.
For `COC(=O)C1CCN(C(=O)c2cc(S(=O)(=O)N3CCCCC3)ccc2Cl)CC1`, the Potency was inconclusive: 16.4 µM [inhibitor, single point].
For `C[C@H](NC(=O)c1nc[nH]c1C(=O)N1CCc2ccccc2C1)c1ccccc1`, the Potency was inconclusive: 23.1 µM [inhibitor, single point].
With `CSc1ncccc1C(=O)OCc1nc2ccsc2c(=O)[nH]1` the Potency was “inactive”.
With `O=C(NCCCN1CCOCC1)C1CCN(S(=O)(=O)c2cccc(Cl)c2Cl)CC1` the Potency was “inactive”.
For `Cc1cccc(Nc2nnc(SCC(=O)c3c(N)n(C4CC4)c(=O)[nH]c3=O)s2)c1`, the Potency was “inactive”.
With `Cc1ccc(-c2cc(C(=O)Nc3nn[nH]n3)c3ccccc3n2)cc1` the Potency was inconclusive: 7.31 µM [inhibitor, partial curve, poor fit].
For `C=C(C)COc1ccc(-c2n[nH]c(C)c2Oc2ccccc2OC)c(O)c1`, the Potency was active: 14.6 µM.
In the case of `Cc1cc(C)cc(NC(=O)CN2C(=O)CSc3ccc(S(=O)(=O)N4CCCC4)cc32)c1`, the Potency is reported as inconclusive: 20.6 µM [inhibitor, single point].
For `CCCC(=O)Nc1nnc(S(=O)(=O)N(CC)c2ccc(OC)cc2)s1`, the Potency was “inactive”.
For `CCOC(=O)N1CCN(C(=O)COc2ccc3oc4c(c3c2)CCCC4)CC1`, the Potency was inconclusive: 29.1 µM [inhibitor, single point].
For `CCOC(=O)c1sc(C)c(C(N)=O)c1NC1=NCCCCC1`, the Potency was inconclusive: 28.2 µM [inhibitor, single point].
With `CCOc1ccc(NC(=O)Cn2c(=O)n(Cc3ccccc3)c(=O)c3sc4ccccc4c32)cc1` the Potency was active: 6.51 µM.
With `CCC1CCc2sc(C(=O)OCC(=O)N(CCOC)c3c(N)n(Cc4ccccc4)c(=O)[nH]c3=O)cc2C1` (configuration not stated) the Potency was inconclusive: 29.1 µM [inhibitor, single point].
In the case of `CSCCC(NS(=O)(=O)c1ccc(C)cc1)C(=O)N1CCN(S(=O)(=O)c2ccc(F)cc2)CC1` (configuration not stated), the Potency is reported as “inactive”.
For `CC(NC(=O)COC(=O)Cc1ccsc1)c1ccccc1` (configuration not stated), the Potency was “inactive”.
For `O=[N+]([O-])c1cccc(-c2cc(-c3cc(Br)ccc3O)[nH]n2)c1`, the Potency was inconclusive: 29.1 µM [inhibitor, single point].
In the case of `COC(=O)C1=C(C)OC(N)=C(C#N)C1c1ccc(OC)c(CSc2ccccn2)c1` (configuration not stated), the Potency is reported as “inactive”.
With `CC1=C(c2ccc(C(C)C)cc2)S(=O)(=O)N=C1N1CCC(C(=O)NCc2ccco2)CC1` the Potency was inconclusive: 25.9 µM [inhibitor, single point].
In the case of `CC(C)(C)NC(=O)C(c1ccccc1)n1c(=O)c(-c2ccccc2)nc2ccccc21` (configuration not stated), the Potency is reported as inconclusive: 23.1 µM [inhibitor, single point].
In the case of `C#C[C@]1(O)CC[C@H]2[C@@H]3CCC4=C(CCC(=O)C4)[C@H]3CC[C@@]21C`, the Potency is reported as inconclusive: 29.1 µM [inhibitor, single point] and inconclusive: 11.4 µM [inhibitor, single point].
With `CCOC(=O)c1c(NC(=O)CSc2cn(CCNC(=O)c3ccccc3OC)c3ccccc23)sc2c1CCCC2` the Potency was inconclusive: 14.6 µM [inhibitor, single point].
For `CCc1cc2cc(C(=O)Nc3ccc(C)cc3)sc2s1`, the Potency was “inactive”.
For `OC(c1ccc(F)c(F)c1)c1nc(-c2ccccc2)cs1` (configuration not stated), the Potency was inconclusive: 23.1 µM [inhibitor, single point].
For `N#CCSc1nnc(-c2c[nH]c3ccccc23)o1`, the Potency was “inactive”.
In the case of `O=C(O)c1cccc(CN2C(=O)S/C(=C/c3ccccc3[N+](=O)[O-])C2=O)c1`, the Potency is reported as “inactive”.
In the case of `COc1ccccc1/C=C\C(=O)NCC(=O)N/N=C/c1cccc(OC)c1O`, the Potency is reported as active: 7.31 µM.
In the case of `NC1=NC2(CCCCC2)N(c2cccc(Cl)c2)C(N)=N1`, the Potency is reported as active: 10.3 µM.
In the case of `CCOc1ccc(C(=O)NCCC2=CCCCC2)cc1OCC`, the Potency is reported as “inactive”.
With `CCOC(=O)N1CCC(N(CCOC)C(=O)Nc2ccc(Cl)cc2)CC1` the Potency was inconclusive: 29.1 µM [inhibitor, single point].
With `CCCc1cc(=O)[nH]c(SCC(=O)Nc2ncc(S(=O)(=O)c3ccc([N+](=O)[O-])cc3)s2)n1` the Potency was inconclusive: 6.51 µM [inhibitor, partial curve].
Potency means the concentration at half of the fitted maximal effect; tags describe the fitted curve by direction and shape.
